Assay results reported in the antibiotic and cytotoxicity screens of Wong et al. (2023).
The list shows a part of the results.

Assays:
[1] = test system: HSkMC (human skeletal muscle cells); assay: cytotoxicity call (relative viability < 0.9); conditions: 10 µM
[2] = test system: S. aureus RN4220; assay: growth inhibition call (relative growth <= 0.2); conditions: 50 µM

Row | Compound | cytotoxicity call [1] | growth inhibition call [2]
1 | C[C@@H]1CCCCO[C@@H](CN(C)Cc2ccc(C(F)(F)F)cc2)[C@@H](C)CN([C@@H](C)CO)C(=O)c2cc(NC(=O)C3CCCCC3)ccc2O1 | inactive | inactive
2 | Cc1n[nH]c(=O)[nH]c1=O | inactive | inactive
3 | C[C@H]1CN([C@@H](C)CO)C(=O)c2cc(NC(=O)Nc3ccc(F)cc3)ccc2O[C@H]1CN(C)C(=O)Nc1cccc2ccccc12 | inactive | inactive
4 | CCCNC(=O)N1C[C@@H](O)COC[C@H]2O[C@H](CC(=O)N3CCN(C)CC3)CC[C@@H]21 | inactive | inactive
5 | C[C@@H]1CN([C@H](C)CO)C(=O)c2cc(NC(=O)Nc3ccc(C(F)(F)F)cc3)ccc2O[C@@H]1CN(C)Cc1ccc(C(=O)O)cc1 | inactive | inactive
6 | O=S(=O)(NCCCCN(C/C=C/c1ccccc1)C/C=C/c1ccccc1)c1cccc2cnccc12 | inactive | inactive
7 | C=CCCC(=O)N(C)[C@H](C)[C@@H](OC(=O)[C@@H]1[C@@H]2C=C[C@]3(O2)[C@H](CN(CC=C)Cc2ccccc2)N(C(C)(C)C)C(=O)[C@@H]13)c1ccccc1 | inactive | inactive
8 | COC(=O)[C@H]1C2C(=O)N(C3CC3)C[C@]23C=C[C@H]1O3 (stereo not given in full) | inactive | inactive
9 | C[C@@H]1CCCCO[C@@H](CN(C)C(=O)c2ccncc2)[C@H](C)CN([C@H](C)CO)C(=O)c2cc(NS(=O)(=O)c3ccc(Cl)cc3)ccc2O1 | inactive | inactive
10 | O=C(CCCCCCC(=O)Nc1ccccc1O)N/N=C/[C@H](O)[C@@H](O)[C@H](O)CO | inactive | inactive
11 | C[C@@H]1CN([C@@H](C)CO)C(=O)c2cccc(NS(=O)(=O)c3cn(C)cn3)c2O[C@H]1CN(C)C(=O)NC1CCCCC1 | inactive | inactive
12 | C[C@H](CO)N1C[C@H](C)[C@H](CN(C)Cc2ccc(Oc3ccccc3)cc2)Oc2ccc(NS(=O)(=O)c3ccccc3)cc2C1=O | inactive | inactive
13 | O=C(C[C@@H]1CC[C@@H]2[C@H](COC[C@H](O)CN2S(=O)(=O)c2ccc(F)cc2)O1)NCCN1CCCCC1 | inactive | inactive
14 | O=C(C[C@H]1C=C[C@H](NC(=O)CN2CCOCC2)[C@@H](CO)O1)NCc1cccc(F)c1 | inactive | inactive
15 | Cc1ccc(S(=O)(=O)Nc2ccc3c(c2)C(=O)N([C@@H](C)CO)C[C@H](C)[C@H](CN(C)C(=O)CCC(F)(F)F)OCCCC[C@H](C)O3)cc1 | inactive | inactive
16 | C1=C(c2ccccc2)CC(c2ccccc2)=NN=C1c1ccccc1 | inactive | inactive
17 | O=C([O-])C=CC(=O)[O-].[Fe+2] | inactive | inactive
18 | COc1ccc(NC(=O)N(C)C[C@H]2OCCCC[C@H](C)Oc3ccc(NS(=O)(=O)c4ccc(Cl)cc4)cc3C(=O)N([C@@H](C)CO)C[C@@H]2C)cc1 | inactive | inactive
19 | COc1nc(C#N)nc(N2CCCCC2)n1 | inactive | inactive
20 | C=CCC[C@H](Cc1ccc(F)cc1)C(=O)OC[C@@H](NC(=O)[C@@H](CC=C)CC(=O)N[C@H](CO)Cc1ccccc1)C(C)(C)C | inactive | inactive
21 | C[C@@H]1CCCCO[C@H](CN(C)C(=O)c2ccccc2)[C@@H](C)CN([C@H](C)CO)C(=O)c2cc(NS(=O)(=O)c3ccc(F)cc3)ccc2O1 | inactive | inactive
22 | COc1ccccc1CNC(=O)C[C@H]1C[C@H]2c3cc(NC(=O)Nc4ccc(C(F)(F)F)cc4)ccc3O[C@H]2[C@H](CO)O1 | inactive | inactive
23 | COCCOC(=O)N1C(=O)[C@@]2(c3ccccc31)[C@H](C(=O)Nc1nc3ccccc3s1)[C@H]1C(=O)O[C@H](c3ccccc3)[C@H](c3ccccc3)N1[C@@H]2c1ccc(OCCO)cc1 | inactive | inactive
24 | COc1ccc(-c2c(O)c3c(OC)c4c(cc3oc2=O)OC(C)(C)C=C4)cc1 | inactive | inactive
25 | C[C@H]1O[C@@H](OC(=O)[C@]23CCC(C)(C)C[C@H]2C2=CC[C@H]4[C@@]5(C)CC[C@H](O[C@@H]6O[C@H](C(=O)O)[C@@H](O)[C@H](O[C@@H]7OC[C@@H](O)[C@H](O)[C@H]7O)[C@H]6O[C@@H]6O[C@H](CO)[C@H](O)[C@H](O)[C@H]6O)[C@@](C)(C=O)[C@@H]5CC[C@@]4(C)[C@]2(C)C[C@H]3O)[C@H](O[C@H]2O[C@@H](CO)[C@@H](O)[C@@H](O)[C@@H]2O)[C@@H](O)[C@H]1O[C@@H]1O[C@H](C)[C@@H](O[C@H]2OC[C@@H](O)[C@@H](O)[C@@H]2O)[C@H](O)[C@@H]1O | inactive | inactive
